About 65 (0.1%) of roughly 45,000 compounds were called active. The call rests on the fitted dose curve; in most records, active means well fitted activation curve with a large enough effect; inconclusive means small, poorly fitted or top-dose-only effect; inactive means no such curve, though single readings can be large or run the other way. The list shows a part of the results.

Chain of UniProt P54803 (P54803 whole entry, looked up): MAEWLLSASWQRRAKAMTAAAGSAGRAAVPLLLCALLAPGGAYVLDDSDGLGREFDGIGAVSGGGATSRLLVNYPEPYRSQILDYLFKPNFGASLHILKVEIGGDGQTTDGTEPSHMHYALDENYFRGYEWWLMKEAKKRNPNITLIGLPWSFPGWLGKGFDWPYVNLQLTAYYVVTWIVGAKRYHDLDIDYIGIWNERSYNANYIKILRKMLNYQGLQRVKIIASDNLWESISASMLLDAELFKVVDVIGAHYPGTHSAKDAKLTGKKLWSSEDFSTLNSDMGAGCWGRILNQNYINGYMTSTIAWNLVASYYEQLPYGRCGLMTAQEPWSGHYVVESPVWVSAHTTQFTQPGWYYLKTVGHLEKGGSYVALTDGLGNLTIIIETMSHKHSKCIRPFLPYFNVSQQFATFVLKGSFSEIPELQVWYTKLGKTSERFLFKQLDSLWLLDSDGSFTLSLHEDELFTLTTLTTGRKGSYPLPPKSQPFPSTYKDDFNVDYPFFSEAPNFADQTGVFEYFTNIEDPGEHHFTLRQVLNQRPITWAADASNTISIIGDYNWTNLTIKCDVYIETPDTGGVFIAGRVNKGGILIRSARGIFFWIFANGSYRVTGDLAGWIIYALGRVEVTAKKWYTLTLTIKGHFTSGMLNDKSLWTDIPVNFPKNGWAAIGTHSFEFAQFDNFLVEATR

The experiment concerns the target Galactocerebrosidase (Homo sapiens) (UniProt P54803). Description: A Novel Cell-Based Assay to Identify Small Molecules for B -Galactocerebrosidase. Further: 0% is about no effect; nearly all actives have a fitted effect of over 65% in size. The settings on record: 145M-Twi-hGALC-G270D cells (Twitcher mouse brain line with human GALC G270D), HMU-beta-Gal fluorescence, 48 h; series mostly up to 57.5 µM; activation: at the top concentration. The method, boiled down:
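Live 145M-Twi cells (Twitcher mouse brain-derived, GALC-null) stably expressing human GALC-G270D, with a wild-type GALC line, were compound-treated. Residual GALC activity was then read as fluorescence from 0.1 mM final HMU-β-gal at pH 5.2; higher signal means activation.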
As for `C=CCC(CC=C)(CNC(=O)C(=O)Nc1ccc(Br)cc1)c1ccc(OC)c(OC)c1`, the “activation” value was inactive: 3.7%.

As for `CCCc1nnc(SCc2cc(=O)c3c(C)cc(C)cc3[nH]2)n1C`, the “activation” value was inactive: 5.11%. As to `CCc1nnc(NC(=O)CSc2nccn2Cc2ccc(Cl)cc2)s1`, the “activation” value was inactive: -9.71%. Take `COCCNC(=O)c1ccc2c(c1)ncn2-c1cc(C)ccc1OC`: the “activation” value was inactive: -13%. Take `CCOc1ccc(NS(=O)(=O)c2c(C)nc3sc(CC)nn3c2=O)cc1`: the “activation” value was inactive: -9.42%. For `CCc1ccc(CNC(=O)Cn2nc(C)c3nn(-c4ccc(Cl)cc4)c(C)c3c2=O)cc1`, the “activation” value is inactive: -6.38%. For `Cn1cccc1-c1cc2n(n1)CCC(=O)N2CCCC(=O)NCc1cccc(Cl)c1`, the “activation” value was inactive: -16.9%. Next, `O=C(NCc1cccc(Cl)c1)c1cnc(N2CCOCC2)c2ccccc12`: inactive: -9.64%; `O=C1CN(C(=O)Nc2ccccc2C(F)(F)F)C(c2ccccc2)c2c(sc3c2CCCC3)N1` (configuration not stated): inactive: -18%; `CCOc1ccc(CCNC(=O)CSc2cc(=O)n(C)c3ccc(Cl)cc23)cc1OCC`: inactive: -4.2%.

For the compound `COc1ccccc1NS(=O)(=O)c1cc2c(cc1Cl)NC(=O)CO2`, the “activation” value is inactive: -15.1%. With `Cc1cccc(N2CCN(C(=O)CCSCc3ccccc3F)CC2)c1C`, the “activation” value was inactive: -9.85%. Regarding `COc1ccccc1N1CCN(C(=O)Cn2ncc3c(=O)oc4ccc(C)cc4c32)CC1`, the “activation” value was inactive: -8.69%. Next, `CN(C)S(=O)(=O)c1ccc(C(=O)Nc2ccc(-n3nncc3-c3ccccc3)cc2)cc1`: inactive: -7.78%. For the compound `CCCc1cnc2c(c1SCc1ccc(C(F)(F)F)cc1)c(=O)n(C)c(=O)n2C`, the “activation” value was inactive: -14.9%.

For `Cc1ccc(NC(=O)CSc2ccc(-c3sc(-c4ccccc4)nc3C)nn2)cc1F`, the “activation” value is inactive: -7.13%.

`CCN1C(=O)C2(c3ccccc31)c1c(oc3ccc(F)cc3c1=O)C(=O)N2CCCOC` (configuration not stated): the “activation” value was inactive: -10.7%.

On to `CC(C)Oc1ccc(CNC(=O)c2ccc(Cn3c(=O)c4cccn4c4cccnc43)cc2)cc1`, for which the “activation” value was inactive: 2.76%.

Turning to `COc1ccc(C2=NC(C)(C)N(CC(=O)Nc3ccc(F)c(F)c3)C2=O)cc1`, the “activation” value was inactive: 3.13%. Next, `Cc1nn2c(=O)cc(COC(=O)CNC(=O)c3ccc(F)cc3)nc2s1`: inactive: -11.6%; `CCN1CCN(c2cc(C)c3cc(NC(=O)c4cc(Cl)ccc4OC)ccc3n2)CC1`: inactive: -22%. On to `CC(=O)c1ccc(NC(=O)Cn2c(=O)n(Cc3ccco3)c(=O)c3sc4ccccc4c32)cc1`, for which the “activation” value was inactive: -8.14%. Consider `Cc1ccc(N(Cc2cccs2)C(=O)COc2cccc(C)c2)cc1`, for which the “activation” value was inactive: -15.2%. As to `Cc1cccc(CNC(=O)c2cnc3sc(N4CCCCCC4)nn3c2=O)c1`, the “activation” value was inactive: 3.02%.

Turning to `COc1ccc(-c2nsc(NC(=O)c3oc4cc(C)c(C)cc4c3C)n2)cc1`, the “activation” value was inactive: 5.89%.

For the compound `Cc1ccc(NC(=O)c2c(C)nc3sc(C(=O)Nc4ccc(F)cc4)c(N)c3c2-c2ccccc2Cl)c(C)c1`, the “activation” value is inactive: -16.9%. Next, `CCOC(=O)c1c(C)n(-c2ccccc2)c2ccc(OC(=O)c3ccccc3NC(=O)C(C)(C)C)cc12`: inactive: -36.4%.

These data come from PubChem BioAssay AID1159614 (National Center for Advancing Translational Sciences (NCATS), 2016).
